Results from patent US12037395 (IMMVIRA, dated 2024).

Key:
[1] = biological target: T1, human PD-1 on PD-1 Effector Cell Line (Genscript, GS-J2/PD-1) (human, UniProt Q15116 25-288); test: cell-based or functional assay
[2] = biological target: T2, cynomolgus monkey PD-1-his protein (Acro biosystems, #PD-1-C5223) (cynomolgus monkey, UniProt B0LAJ3 25-170); test: SPR (Biacore)
T2 construct: Bought protein; also called Cynomolgus PD-1; Cynomolgus PD1

[3] = biological target: T3, recombinant human PD-1-his (Sino biological, #10377-H08H) (human, UniProt Q15116 partial chain); test: SPR (Biacore)
T3 construct: Bought protein; also called Human PD-1-his protein; not shown: his tag

[4] = biological target: T1, human PD-1 on PD-1 Effector Cell Line …; test: cell-based or functional assay; remark: listed apart in the source

T2 sequence (B0LAJ3 entry or part of it limits assumed): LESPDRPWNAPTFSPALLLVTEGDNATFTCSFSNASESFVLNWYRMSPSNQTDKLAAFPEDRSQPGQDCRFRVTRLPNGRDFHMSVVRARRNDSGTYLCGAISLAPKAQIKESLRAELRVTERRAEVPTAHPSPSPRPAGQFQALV

B1: Chimeric C1E1 antibody (antibody, human IgG1, kappa)
heavy: EVMLVESGGGLVKPGGSLKLSCAASGFTFSSYLMSWVRQTPEKRLEWVATISGGGGDTYFPDSVKGRFTISRDNVKNNLYLQMSSLRSEDTALYYCVRFGGAGYYWYFDVWGAGTTVTVSS[human IgG1 constant region not printed]
light: DIVLTQSPASLAVSLGQRATISCRASKSVDDSGISFMHWFQQKPGQPPKLLIYAASNQGSGVPARFRGSGSGTDFSLNIHPMEEDDTAMYFCHQTKEVPWTFGGGTKLEIKRTVAAPSVFIFPPSDEQLKSGTASVVCLLNNFYPREAKVQWKVDNALQSGNSQESVTEQDSKDSTYSLSSTLTLSKADYEKHKVYACEVTHQGLSSPVTKSFNRGEC
notes: Mouse C1E1 variable domains on human IgG1/kappa constant regions; also called chC1E1
Which “Cell-based functional reporter assay (IC50, nM)” value [1] does the source give for B1 here?
Its value is 8.53 nM.

And the Kd [2]?
The Kd was 0.845 nM.

What about the Kd [3] of the same binder?
The Kd was 0.881 nM.

What about the “Cell-based reporter assay (EC50, nM)” value [4] of the same binder?
Its value is 8.53 nM.
